# Results: PubChem BioAssay AID1347073 (National Center for Advancing Translational Sciences (NCATS), 2019)
# Among all 45,000 compounds or so, about 200 (0.44%) were called active. Inconclusive results (about 7%) are left out. The call rests on the fitted dose curve; in most records, active means well fitted activation curve with a large enough effect; inconclusive means small, poorly fitted or top-dose-only effect; inactive means no such curve, though single readings can be large or run the other way. The list shows a part of the results.
# Assay: qHTS of TDP-43 Inhibitors: NCGC Sytravon Library Screen; further: 0% is about no effect; nearly all actives have a fitted effect of over 55% in size
# Conditions: yeast TDP-43 toxicity rescue, BacTiter-Glo growth, 24 h; series mostly up to 46.1 µM; growth rescue (activation): at the top concentration
# Method in brief: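 TDP-43-expressing yeast, pregrown in raffinose, seeded at OD600 0.02 in galactose medium with compound for 24 hr at 30 deg C. Growth read by BacTiter-Glo luminescence, so rescue of toxicity appears as activation.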
SMILES,growth rescue (activation),Potency
CN=C1S/C(=C\c2ccc(Cl)cc2)C(=O)N1C,inactive: 27.4%,–
CCC(=O)Nc1ccc(C(=O)CSc2nnc(-c3ccc(NS(C)(=O)=O)cc3)n2C)cc1OC,inactive: 1.93%,–
Cn1c(=O)c2c(nc(CN3CCN(C(c4ccccc4)c4ccccc4)CC3)n2CCCO)n(C)c1=O,inactive: 0.875%,–
CCN(CC)c1nc2ccccc2n(Cc2cccc(OC)c2)c1=O,inactive: 29.6%,–
CN(CC1COc2ccccc2O1)C(=O)CSc1ncccn1 (stereo unspecified),inactive: 7.78%,–
CCOC(=O)/C(=C\c1c[nH]c2ccccc12)NC(C)=O,inactive: 5.58%,–
CCOc1ccc(S(=O)(=O)NCCCn2ccnc2)cc1NC(C)=O,inactive: -1.29%,–
O=C1/C(=C/c2ccc(O)c(O)c2)SC(=S)N1Nc1ccccc1,inactive: 8.34%,–
O=C1CCCC(O)=C1C=NCCc1ccccc1,inactive: 10.4%,–
CCC1OC23CCCCC2C(C#N)(C(=N)O3)C1(C#N)C#N (stereo unspecified),inactive: -1.89%,–
CCOc1ccc(C=NNc2ccc(S(=O)(=O)Nc3ccccc3C(=O)O)cc2[N+](=O)[O-])cc1,inactive: 5.71%,–
COc1cc(CN(C(=O)COc2ccc(C)c(C)c2)c2ccccn2)cc(OC)c1OC,inactive: 13.3%,–
Cc1cc(OCC(=O)N(Cc2ccco2)C2CCS(=O)(=O)C2)ccc1Cl (stereo unspecified),inactive: 2.75%,–
Cc1oc(-c2cccc(F)c2)nc1CN(Cc1ccccc1)C[C@@H]1CCC(=O)N1,inactive: -1.06%,–
O=c1c2[nH]c3cccc(Cl)c3c2ncn1CC1CCCO1 (stereo unspecified),inactive: -5.66%,–
CCCN(CCC)CCNC(=O)c1cc2c(-c3ccccc3F)nn(C)c2s1,inactive: -19.7%,–
O=C(Cn1cccc1C(=O)c1ccccc1)NCc1ccc(F)cc1,inactive: 7.35%,–
Cc1cc(/C=C(\C#N)C(=O)NC2CC2)c(C)[nH]1,inactive: 2.99%,–
CC1=C/C(=N\Nc2ccccc2[N+](=O)[O-])CC(C)(C)C1,inactive: -4.06%,–
Cc1ccc(N(CC(=O)NCc2ccccn2)S(=O)(=O)c2ccccc2)cc1Cl,inactive: 16.2%,–
O=C(OCc1ccc([N+](=O)[O-])cc1)c1cc(=O)c2ccccc2o1,inactive: -15.9%,–
CC(C)(C)C(=O)CSc1ncnc2c1cnn2Cc1ccccc1,inactive: 2.31%,–

SMILES,growth rescue (activation),Potency
O=C(CSc1n[nH]c(-c2cccnc2)n1)Nc1ccccc1[N+](=O)[O-],inactive: -0.651%,–
CCOC(=O)C1=C(c2ccccc2)NC(=O)NC1c1cc(OC)c(OC)cc1OC (stereo unspecified),inactive: -1.92%,–
CC(=O)c1c(C)[nH]c(C(=O)OCc2ccc([N+](=O)[O-])cc2)c1C,inactive: -13.2%,–
CC(C)Cn1c(N)c(C(=O)COC(=O)CC23CC4CC(CC(C4)C2)C3)c(=O)n(C)c1=O,inactive: 17.2%,–
Cc1cccc(C)c1OCCNC(=O)C(=O)NCc1ccco1,inactive: 7.75%,–
Cc1ccc(/C=N/n2c(-c3ccncc3)n[nH]c2=S)o1,inactive: 2.39%,–
Cc1nc2sc(-c3ccccc3)nn2c(=O)c1Br,inactive: 10.6%,–
CC(=O)NCCc1nc2ccccc2n1Cc1cc(C)ccc1C,inactive: 3.52%,–
O=C(CCN1C(=O)c2ccccc2S1(=O)=O)Nc1ccc(F)cc1F,inactive: -4.99%,–
COc1cc(-c2nnco2)cc(OC)c1OC,inactive: 3.3%,–
CCCN1C(=O)c2cccc3c(N4CCCCC4)ccc(c23)C1=O,inactive: -2.83%,–
COC(=O)c1ccccc1NC(=O)CN1CCN(c2ccccn2)CC1,inactive: 4.58%,–
S=C(NC1CC1)N1CCc2ccccc2C1,inactive: -11.3%,–
O=C(NC(=S)NC1C2CC3CC(C2)CC1C3)C12CC3CC(CC(C3)C1)C2 (stereo unspecified),inactive: -6.13%,–
O=c1oc2c(CN3CCN(CCO)CC3)c(O)ccc2cc1-c1ccccn1,inactive: -0.165%,–
O=C(O)c1cc(-c2cccc3ccccc23)nc2ccccc12,inactive: 3.11%,–
Cc1ccc(NC(=O)CNNC(=O)c2cccc([N+](=O)[O-])c2)cc1[N+](=O)[O-],inactive: 2.74%,–
NC(=O)CC1Nc2cccc3cccc(c23)NC1=O (stereo unspecified),inactive: 6.63%,–
COc1ccc(NC(=O)c2cccc(N3C(=O)C4CC=C(C)CC4C3=O)c2)c(OC)c1 (stereo unspecified),inactive: 8.91%,–
CC(=O)Nc1cccc(/C(C)=N/NS(=O)(=O)c2ccccc2)c1,inactive: -1.04%,–
CCCCN(C)S(=O)(=O)c1cc2c(cc1Br)CCN2C(=O)C1CC1,inactive: -31.9%,–
Cc1ccc(N2C(=O)Cc3ccccc3C2=O)cc1,inactive: 17%,–

SMILES,growth rescue (activation),Potency
CN(C)S(=O)(=O)c1cccc(NC(=O)CNCC2CCCCC2)c1,inactive: 3.64%,–
O=C(Nc1nnc([C@@H]2O[C@H](CO)[C@@H](O)[C@H]2O)s1)Nc1ccccc1C(F)(F)F,inactive: 0.321%,–
Cc1cc(C(=O)COC(=O)c2ccc(NC(=O)CC#N)cc2)c(C)n1-c1ccc(OC(F)F)cc1,inactive: -3.78%,–
O=C(CC12CC3CC(CC(C3)C1)C2)NCC(=O)OCc1cc(=O)oc2ccc3ccccc3c12,inactive: 2.73%,–
O=C(CCCOc1ccc(Cl)cc1Cl)N/N=C/c1ccc(Cl)cc1,inactive: 28.9%,–
C=C(C)c1cccc(C(C)(C)NC(=O)Nc2ccc(C(N)=O)cc2)c1,inactive: -15.9%,–
O=C(NCc1cccnc1)NC1CCCN1S(=O)(=O)c1ccc(Cl)cc1 (stereo unspecified),inactive: 13.5%,–
COc1ccc(C(=O)NCC2CCCCC2)cc1S(=O)(=O)N1CCOCC1,inactive: 2.06%,–
CCC(=O)N1CCC1(C)C(=O)Nc1ccc2scnc2c1 (stereo unspecified),inactive: 8.32%,–
CCCOC(=O)/C(=C\C=C\c1ccccc1)NC(=O)c1ccccc1,inactive: -2.07%,–
Cc1cccn2cc(-c3ccc(S(=O)(=O)N4CCCCC4)cc3)nc12,inactive: 10.4%,–
CC1(C)CC(N2CN(C3CCCCC3)CC2=O)CC(C)(C)N1,inactive: -10.5%,–
C/C(=N\NS(=O)(=O)c1ccc(C)c([N+](=O)[O-])c1)c1cccs1,inactive: 17.8%,–
Cc1cc(C(=O)N/N=C/c2cc(N=Nc3ccccc3)ccc2O)n[nH]1,inactive: 3.53%,–
CCOc1cc(/C=N/Nc2nc(Nc3ccccc3)nc(N3CCCCC3)n2)ccc1OCC(=O)O,inactive: 11.1%,–
O=S(=O)(NCCN1CCN(S(=O)(=O)c2ccccc2F)CC1)c1ccccc1F,inactive: 16.3%,–
CCCC(=O)C1=C(N2CCCC2)CC(C)(C)C(C(=O)OC)C1=O (stereo unspecified),inactive: 5.58%,–
O=C(COc1ccc(Cl)cc1)N1CCCCCCC1,inactive: 26.4%,–
COc1ccc(Nc2nc(-c3ccncc3)nc3ccccc23)cc1,inactive: 11.2%,–
CCOc1ccc(NC(=O)CS(=O)CC(=O)Nc2cccnc2)cc1 (stereo unspecified),inactive: 4.53%,–
CN(C)S(=O)(=O)c1ccc(N2CCCC2)c(C(=O)Nc2ccccc2OC(F)F)c1,inactive: 15.4%,–
CCCn1c(SCC(=O)NC(C)C)nc2sc3c(c2c1=O)CCC3,inactive: 10.8%,–

SMILES,growth rescue (activation),Potency
Cc1cc(NS(=O)(=O)c2ccc(NC(=O)CCCOc3ccccc3C)cc2)no1,inactive: -5.72%,–
COc1ccc(NS(=O)(=O)c2cccc(NC(=O)COc3ccccc3[N+](=O)[O-])c2)cc1,inactive: -9.26%,–
COc1cc(Br)cc(/C=N/N(CCO)C2=NS(=O)(=O)c3ccccc32)c1OC,inactive: 0.602%,–
CCOc1ccc(NC(=S)N(CCOC)C(C)c2cccnc2)cc1 (stereo unspecified),inactive: -22.4%,–
COc1ccc(C(C(=O)NCC2CCCO2)N(C(=O)Cn2nnc3ccccc32)c2ccc(NC(C)=O)cc2)cc1OC (stereo unspecified),inactive: 14.2%,–
Cc1cc(CN(C)Cc2c(C(=O)N3CCCCCCC3)nc3ccc(Cl)cn23)n[nH]1,inactive: -14.4%,–
Cc1cccc(NC(=S)NCCCN2CCOCC2)c1,inactive: -12.3%,–
COc1ccc(N=Cc2cc3c(cc2O)OC(N)=C(C#N)C3c2ccccc2)cc1 (stereo unspecified),inactive: -7.96%,–
Cc1noc(C)c1S(=O)(=O)N1CCC(C(=O)NCCCN2CC(C)CC(C)C2)CC1 (stereo unspecified),inactive: -12.9%,–
O=C(Nc1ccc(OC(F)(F)F)cc1)C1CC(c2ccc(F)cc2)=NO1 (stereo unspecified),inactive: -3.79%,–
CC(=O)c1ccc(Nc2nc(C(N)c3ccccc3Cl)cs2)cc1 (stereo unspecified),inactive: -12.5%,–
Cc1cc(/C=C(\C#N)C(=O)NC2CCCCCC2)c(C)n1C,inactive: -0.301%,–
CCCCN(C(=O)C1CCN(C(=O)c2ccccc2C)CC1)c1c(N)n(CCC)c(=O)[nH]c1=O,inactive: -15.1%,–
O=C(CSc1nnnn1C1CC2C=CC1C2)Nc1ccc(C(=O)O)cc1 (stereo unspecified),inactive: -11.7%,–
CCC1N=C(SC)NC(C)=C1C(=O)c1ccccc1 (stereo unspecified),inactive: -11.1%,–
O=c1nc(N/N=C/c2c[nH]c3ccccc23)cn[nH]1,inactive: 25.5%,–
Cc1ccc(S(=O)(=O)NC2CC(C)(C)NC(C)(C)C2)cc1C,inactive: 9.86%,–
O=C(CCN1C(=O)/C(=C/c2ccccc2)SC1=S)N1CCCCCC1,inactive: 23.9%,–
COc1ccc(Nc2nc(-c3ccccc3)nc3ccccc23)c(OC)c1,inactive: 9.16%,–
COc1cccc(CN(C)C(=O)c2cccc(OC3CCN(C4CCCC4)CC3)c2)c1,inactive: 10.9%,–
O=C(Nc1ccccc1F)c1c[nH]c(=O)[nH]c1=O,inactive: 8.44%,–
CC1(Oc2ccc(Cl)cc2)CCN(Cc2ccc(OC(F)(F)F)cc2)C1 (stereo unspecified),inactive: 18.5%,–

SMILES,growth rescue (activation),Potency
COc1ccc(C(=O)COC(=O)c2cc(=O)c3ccccc3o2)cc1,inactive: -31.8%,–
CCn1c(SCC(=O)NC2CC2)nnc1-c1cccc(OC)c1,inactive: -2.71%,–
O=C(C1CCN(Cc2ccccc2)CC1)N1CCN(C/C=C/c2ccccc2)CC1,inactive: -3.09%,–
CCOc1ccc(NC(=O)N2CCC(n3nnc4ccccc43)CC2)cc1,inactive: -0.0668%,–
COc1cc(CN2C[C@@H](CO)O[C@@H](n3cnc4c(NC5CCC5)ncnc43)C2)cc(OC)c1OC,inactive: 1.42%,–
N#CCCN(C(=O)COc1ccc(C#N)cc1)c1ccc(F)cc1,inactive: 13.5%,–
O=C(N/N=C/C(Br)=C/c1ccccc1)C(O)c1ccccc1 (stereo unspecified),inactive: 28.8%,–
Cc1ccccc1S(=O)(=O)NC(=O)C1(C)CCN1C(=O)c1cccc2ccccc12 (stereo unspecified),inactive: 16.9%,–
O=C(CSc1nc(-c2ccc(F)cc2)nc2c1Cc1ccccc1O2)Nc1cccc(C(=O)O)c1,–,inactive
CCOC(=O)C1=C(C(F)(F)F)Nc2ncnn2C1c1cc(OC)ccc1OC (stereo unspecified),inactive: 6.4%,–
COc1ccc(NC(=O)CCSc2ccc(C)cc2)cc1S(=O)(=O)Nc1ccccc1Cl,inactive: -13%,–
C=CCn1c(SCC(=O)NC2CC2)nc2sc(CC)cc2c1=O,inactive: 5.57%,–
O=c1cnnc(Nc2ccc(Cl)c(C(F)(F)F)c2)[nH]1,inactive: -10.6%,–
O=C(O)c1ccc(C2SCC(=O)N2Cc2ccco2)cc1 (stereo unspecified),inactive: 0.36%,–
CCCCNC(=O)C1(C)CCCCN1C(=O)c1cc(OC)ccc1Br (stereo unspecified),inactive: -1.36%,–
Cc1ccccc1NC(=O)c1cccc(S(=O)(=O)N2CCCCC2)c1,inactive: 21.2%,–
Cc1ccc(NC2CCCN(C(=O)c3cn4cccc(C)c4n3)C2)cc1C (stereo unspecified),inactive: -2.17%,–
COc1ccc(C(C(O)C(=O)c2c[nH]c3ccccc23)N2CCN(c3ccccc3)CC2)cc1 (stereo unspecified),inactive: 13.1%,–
